Assay results published in the supplement of paper PMC4967469.

Columns and labels:
Assay in all cases: Viability of human cancer cell lines after 72 h of drug (GDSC screen)
MP470 = compound: S=C(NCc1ccc2c(c1)OCO2)N1CCN(c2ncnc3c2oc2ccccc23)CC1 [MP470]; conditions: top dose 20 µM; top dose inferred
Description: (§1)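 Human cancer cell lines in 384-well plates, medium with 10% serum, drug for 72 h over a 256-fold dose range (nine 2-fold or five 4-fold steps up to the top dose). Adherent lines were fixed and stained with the nucleic acid dye Syto60, suspension lines read with resazurin; signal relative to control wells, capped at 0 and 100%. One two-parameter sigmoid per drug and line, fitted in a mixed model over all curves with the slope shared within a line.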

Gemcitabine = compound: Nc1ccn([C@@H]2O[C@H](CO)[C@@H](O)C2(F)F)c(=O)n1 [Gemcitabine]; conditions: top dose 1.024 µM
Description: as §1

AUY922 = compound: CCNC(=O)c1noc(-c2cc(C(C)C)c(O)cc2O)c1-c1ccc(CN2CCOCC2)cc1 [AUY922]; conditions: top dose 0.256 µM; top dose inferred
Description: as §1

LFM-A13 = compound: C/C(O)=C(\C#N)C(=O)Nc1cc(Br)ccc1Br [LFM-A13]; conditions: top dose 16 µM; top dose inferred
Description: as §1

T0901317 = compound: O=S(=O)(c1ccccc1)N(CC(F)(F)F)c1ccc(C(O)(C(F)(F)F)C(F)(F)F)cc1 [T0901317]; conditions: top dose 10.24 µM; top dose inferred
Description: as §1

TW-37 = compound: CC(C)c1ccccc1Cc1cc(C(=O)Nc2ccc(S(=O)(=O)c3ccccc3C(C)(C)C)cc2)c(O)c(O)c1O [TW-37]; conditions: top dose 5 µM
Description: as §1

Bicalutamide = compound: CC(O)(CS(=O)(=O)c1ccc(F)cc1)C(=O)Nc1ccc(C#N)c(C(F)(F)F)c1 [Bicalutamide]; conditions: top dose inferred
Description: as §1

KIN001-270 = compound: Cc1ccc(Nc2cc(-c3cccc(N4C(=O)c5ccccc5C4=O)c3)ncn2)cc1NS(C)(=O)=O [KIN001-270]; conditions: top dose 20 µM; top dose inferred
Description: as §1

[1] = top dose 1.024 µM, screen: GDSC drug entry 150
[2] = top dose 10 µM, screen: GDSC drug entry 1502

Cell Line	AUC (MP470)	IC50 (MP470) [nM]	AUC (Gemcitabine)	IC50 (Gemcitabine) [nM]	AUC (AUY922)	IC50 (AUY922) [nM]	AUC (LFM-A13)	IC50 (LFM-A13) [nM]	AUC (T0901317)	IC50 (T0901317) [nM]	AUC (TW-37)	IC50 (TW-37) [nM]	AUC (Bicalutamide; [1])	IC50 (Bicalutamide; [1]) [nM]	AUC (Bicalutamide; [2])	IC50 (Bicalutamide; [2]) [nM]	AUC (KIN001-270)	IC50 (KIN001-270) [nM]
PANC-10-05 (pancreas, adherent)	0.953	> 20000	0.35	21.7	0.447	11	0.956	> 16000	0.98	> 10200	0.68	1160	0.982	> 1020	0.962	> 10000	0.975	> 20000
PC-14 (lung adenocarcinoma, adherent)	0.96	> 20000	0.545	83.6	0.551	21.6	0.899	> 16000	0.99	> 10200	0.529	370	0.989	> 1020	0.983	> 10000	0.944	> 20000
PCI-4B (head and neck, adherent)	0.959	> 20000	0.039	< 4	0.44	11.1	0.984	> 16000	0.983	> 10200	0.39	158	0.987	> 1020	0.981	> 10000	0.97	> 20000
PCI-6A (head and neck, adherent)	0.953	> 20000	0.204	8.72	0.669	46.8	0.985	> 16000	0.978	> 10200	0.59	547	0.988	> 1020	0.974	> 10000	0.988	> 20000
PCI-38 (head and neck, adherent)	0.955	> 20000	0.801	501	0.613	32.8	0.932	> 16000	0.979	> 10200	0.474	266	0.987	> 1020	0.97	> 10000	0.977	> 20000
PL4 (pancreas, adherent)	0.92	> 20000	0.619	138	0.833	174	0.987	> 16000	0.981	> 10200	0.638	765	0.971	> 1020	0.986	> 10000	0.972	> 20000
PL18 (pancreas, adherent)	0.936	> 20000	0.345	23.9	0.55	21.8	0.987	> 16000	0.978	> 10200	0.799	2370	0.986	> 1020	0.986	> 10000	0.974	> 20000
RD (rhabdomyosarcoma, adherent)	0.922	> 20000	0.531	78.6	0.483	14.4	0.943	> 16000	0.985	> 10200	0.635	768	0.985	> 1020	0.98	> 10000	0.946	> 20000
RERF-GC-1B (stomach, adherent)	0.937	> 20000	0.937	> 1020	0.59	29	0.976	> 16000	0.948	> 10200	0.442	212	0.981	> 1020	0.97	> 10000	0.951	> 20000
RERF-LC-KJ (lung adenocarcinoma, adherent)	0.97	> 20000	0.802	521	0.698	58.7	0.969	> 16000	0.987	> 10200	0.727	1410	0.985	> 1020	0.985	> 10000	0.985	> 20000
RKN (ovary, adherent)	0.954	> 20000	0.837	744	0.621	35.2	0.976	> 16000	0.986	> 10200	0.511	335	0.982	> 1020	0.983	> 10000	0.974	> 20000
RT-112 (bladder, adherent)	0.971	> 20000	0.144	4.45	0.346	5.78	0.945	> 16000	0.969	> 10200	0.589	560	0.985	> 1020	0.983	> 10000	0.954	> 20000
SBC-3 (small cell lung carcinoma, adherent)	0.78	7480	0.256	13.8	0.431	10.5	0.974	> 16000	0.976	> 10200	0.356	130	0.989	> 1020	0.934	> 10000	0.921	> 20000
SF295 (glioma, adherent)	0.952	> 20000	0.272	13.5	0.525	18.9	0.945	> 16000	0.971	> 10200	0.523	363	0.975	> 1020	0.931	> 10000	0.976	> 20000
SISO (cervix, adherent)	0.985	> 20000	0.209	9.31	0.83	151	0.965	> 16000	0.986	> 10200	0.311	94.9	0.988	> 1020	0.957	> 10000	0.988	> 20000

IC50 is the fitted dose that halves viability relative to control wells, and lower means more sensitive; where the fit passes the top or lowest dose, that dose stands as a limit. For AUC the same curve is integrated over the 256-fold range of doses and scaled to a fraction; it is 1 without any effect and falls as sensitivity rises. For part of these data: An inferred top dose is not printed in the source and was worked back from the curve model. For part of these data: Where an entry number is given, a second screen of the drug exists; the two often differ.
